The supplement of paper PMC11876631
Changes are numbered by the printed parent chain. Numbers in names are those of the source. ± gives the standard deviation of the averaged measurements. Laboratory Escherichia coli strains with one amino-acid change in an essential protein, pooled on minimal glucose agar with carbenicillin or gentamicin at twice the control MIC (plus kanamycin and chloramphenicol for the plasmids), 48 h. Fold change of barcode share against drug-free plates; higher = less susceptible. Active = above 20 in both replicates (the paper's putatively resistant). '<' = one read or none on drug, '>' = one read or none on a drug-free plate. Shares are relative, so most strains fall below 1 when a few take over. Listed are strains with at least 15 reads on both drug-free plates, and hits; most hits rest on fewer reference reads. Replicate rank correlation about 0.5. Edits are read from barcodes.

B1: ftsY I400W (protein)
chain: MAKEKKRGFFSWLGFGQKEQTPEKETEVQNEQPVVEEIVQAQEPVKASEQAVEEQPQAHTEAEAETFAADVVEVTEQVAESEKAQPEAEVVAQPEPVVEETPEPVAIEREELPLPEDVNAEAVSPEEWQAEAETVEIVEAAEEEAAKEEITDEELETALAAEAAEEAVMVVPPAEEEQPVEEIAQEQEKPTKEGFFARLKRSLLKTKENLGSGFISLFRGKKIDDDLFEELEEQLLIADVGVETTRKIITNLTEGASRKQLRDAEALYGLLKEEMGEILAKVDEPLNVEGKAPFVILMVGVNGVGKTTTIGKLARQFEQQGKSVMLAAGDTFRAAAVEQLQVWGQRNNIPVIAQHTGADSASVIFDAIQAAKARNIDVLIADTAGRLQNKSHLMEELKKWVRVMKKLDVEAPHEVMLTIDASTGQNAVSQAKLFHEAVGLTGITLTKLDGTAKGGVIFSVADQFGIPIRYIGVGERIEDLRPFKADDFIEALFARED
B2: ftsY I457Q (protein)
chain: B1 chain with W400I, I457Q
B3: ftsY F458P (protein)
chain: B1 chain with W400I, F458P
B4: ftsY I457A (protein)
chain: B1 chain with W400I, I457A
B5: ftsY F458A (protein)
chain: B1 chain with W400I, F458A
B6: ftsY I400P (protein)
chain: B1 chain with W400P
B7: ftsY F458W (protein)
chain: B1 chain with W400I, F458W
B8: ftsY I400Q (protein)
chain: B1 chain with W400Q
B9: ftsY I457W (protein)
chain: B1 chain with W400I, I457W
B10: argC F77Q (protein)
chain: MLNTLIVGASGYAGAELVTYVNRHPHMNITALTVSAQSNDAGKLISDLHPQLKGIVDLPLQPMSDISEFSPGVDVVQLATAHEVSHDLAPQFLEAGCVVFDLSGAFRVNDATFYEKYYGFTHQYPELLEQAAYGLAEWCGNKLKEANLIAVPGCYPTAAQLALKPLIDADLLDLNQWPVINATSGVSGAGRKAAISNSFCEVSLQPYGVFTHRHQPEIATHLGADVIFTPHLGNFPRGILETITCRLKSGVTQAQVAQVLQQAYAHKPLVRLYDKGVPALKNVVGLPFCDIGFAVQGEHLIIVATEDNLLKGAAAQAVQCANIRFGYAETQSLI

Biological target: Escherichia coli (laboratory strain)
Test: barcode share on antibiotic plates over drug-free plates; higher = less susceptible
Protocol: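 A pool of E. coli strains, each edited to carry one amino-acid change in an essential protein, was grown for 48 h on minimal glucose agar with or without antibiotic; strain barcodes were sequenced; mean of two replicates.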

[1] = antibiotic: carbenicillin, 2× MIC (3.1 µg/mL)
[2] = antibiotic: gentamicin, 2× MIC (MIC 0.45 µg/mL)

Protein	fold change of barcode share [1]	fold change of barcode share [2]
B1	0.369 ± 0.21	0.0192 ± 0.0068
B2	0.376 ± 0.009	0.0103 ± 0.0091
B3	0.325 ± 0.084	0.0134 ± 0.016
B4	0.448 ± 0.14	0.0137 ± 0.0062
B5	0.329 ± 0.018	0.147 ± 0.096
B6	0.451 ± 0.19	< 0.015
B7	0.805 ± 0.69	0.00325 ± 0.00027
B8	0.172 ± 0.002	< 0.0215
B9	0.302 ± 0.026	0.0137 ± 0.012
B10	0.728 ± 0.024	0.0152 ± 0.013
